Drawing on paper PMC6003176, this text covers binding for 5 substances.

By UniProt entry, the sequences of proteins in these tests, tags left out. Where a name states a change or a piece, a line headed by the entry shows the natural chain unless it says otherwise.
UniProt P05556: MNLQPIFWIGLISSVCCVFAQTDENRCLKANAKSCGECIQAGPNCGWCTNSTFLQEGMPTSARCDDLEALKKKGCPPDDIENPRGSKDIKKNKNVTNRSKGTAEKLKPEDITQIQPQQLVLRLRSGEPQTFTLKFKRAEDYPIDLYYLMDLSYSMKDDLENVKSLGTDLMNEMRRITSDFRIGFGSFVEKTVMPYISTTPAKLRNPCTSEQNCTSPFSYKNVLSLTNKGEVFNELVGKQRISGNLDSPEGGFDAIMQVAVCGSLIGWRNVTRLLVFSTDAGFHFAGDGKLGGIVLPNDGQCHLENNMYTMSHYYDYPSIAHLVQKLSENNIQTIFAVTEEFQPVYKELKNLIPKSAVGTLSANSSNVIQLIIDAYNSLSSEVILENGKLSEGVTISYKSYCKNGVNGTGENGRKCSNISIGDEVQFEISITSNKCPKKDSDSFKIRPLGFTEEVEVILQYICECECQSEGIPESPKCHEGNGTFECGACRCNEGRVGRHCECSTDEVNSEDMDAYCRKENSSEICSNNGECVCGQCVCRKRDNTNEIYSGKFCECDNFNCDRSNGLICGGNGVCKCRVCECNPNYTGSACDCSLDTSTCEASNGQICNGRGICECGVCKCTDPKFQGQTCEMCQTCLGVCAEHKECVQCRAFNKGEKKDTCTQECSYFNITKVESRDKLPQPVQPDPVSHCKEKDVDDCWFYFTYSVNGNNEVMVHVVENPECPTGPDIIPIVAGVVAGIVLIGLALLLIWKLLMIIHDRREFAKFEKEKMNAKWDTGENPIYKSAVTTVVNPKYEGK

Assay [1] concerns the target gamma-synuclein (SNCG), endogenous in HCT116 cells (human (endogenous in HCT116)) (UniProt O76070). The assay can be described thus: co-IP; cell membrane proteins / cell lysates of HCT116 cells immunoprecipitated with anti-SNCG or anti-β1 integrin antibody; Western blot; normal IgG as negative control. In general terms: In western blotting, separated proteins are transferred to a membrane and probed.

The target of assay [2] is β1 integrin, endogenous in HCT116 cells (human (endogenous in HCT116)) (UniProt P05556). The description is as above.
For assay [3] the target is unchanged. Briefly: far-Western, overlay or dot blot; HCT116 cell lysates separated by native PAGE (methods; the legend says SDS-PAGE), transferred to nitrocellulose, probed with 10 ng of purified SNCG overnight at room temperature, detected with HRP-labeled anti-SNCG mAb; cells with control siRNA or β1 siRNA, treated without or with 1 μmol/L rhSNCG; only the binder purified.

Results are given in words; binding and its absence hold for the method and conditions named. For some assays here: In cells and extracts the contact can be indirect. Some entries that bind do so weakly or less than the wild type.

Turning to “EGFR, endogenous in HCT116 cells (from UniProt P00533 25-1210) (receptor)”, in assay [1], the binding entry is “no binding”. The same measure, in the same setting: with “HER-2, endogenous in HCT116 cells (from UniProt P04626 23-1255) (receptor)” the entry was “no binding”. As to “gamma-synuclein (SNCG), endogenous in HCT116 cells (from UniProt O76070 1-127)”, in assay [2], the binding result is “binds”. In the case of “recombinant untagged SNCG, purified (from UniProt O76070 1-127)”, in assay [3], the binding entry was “binds”. With “β1 integrin, endogenous in HCT116 cells (from UniProt P05556 21-798) (receptor)”, in assay [1], the binding result is “binds”.
